Experimental data reported in PubChem BioAssay AID504332 (National Center for Advancing Translational Sciences (NCATS), 2011).
Among all 350,000 compounds or so, about 31,000 (8.9%) were called active. The inconclusive results got no clear call from the source; some entries with a clear call stand among them for comparison. Calls come from the whole dose curve; as a rule, active = well fitted inhibition curve with a large enough effect; inconclusive = small, poorly fitted or top-dose-only effect; inactive = no such curve, though single readings can be large or run the other way. Potencies beside an inconclusive call are fits to weak or partial responses and may not hold up.

The molecules below were run against Histone-lysine N-methyltransferase EHMT2 (Homo sapiens) (UniProt Q96KQ7) (assay: qHTS Assay for Inhibitors of Histone Lysine Methyltransferase G9a). Conditions: G9a H3K9 monomethylation, AlphaScreen, 2 h; activity, negative = inhibition: at 59 µM (top of the series) unless noted.
UniProt Q96KQ7, sequence (Q96KQ7 whole entry, looked up): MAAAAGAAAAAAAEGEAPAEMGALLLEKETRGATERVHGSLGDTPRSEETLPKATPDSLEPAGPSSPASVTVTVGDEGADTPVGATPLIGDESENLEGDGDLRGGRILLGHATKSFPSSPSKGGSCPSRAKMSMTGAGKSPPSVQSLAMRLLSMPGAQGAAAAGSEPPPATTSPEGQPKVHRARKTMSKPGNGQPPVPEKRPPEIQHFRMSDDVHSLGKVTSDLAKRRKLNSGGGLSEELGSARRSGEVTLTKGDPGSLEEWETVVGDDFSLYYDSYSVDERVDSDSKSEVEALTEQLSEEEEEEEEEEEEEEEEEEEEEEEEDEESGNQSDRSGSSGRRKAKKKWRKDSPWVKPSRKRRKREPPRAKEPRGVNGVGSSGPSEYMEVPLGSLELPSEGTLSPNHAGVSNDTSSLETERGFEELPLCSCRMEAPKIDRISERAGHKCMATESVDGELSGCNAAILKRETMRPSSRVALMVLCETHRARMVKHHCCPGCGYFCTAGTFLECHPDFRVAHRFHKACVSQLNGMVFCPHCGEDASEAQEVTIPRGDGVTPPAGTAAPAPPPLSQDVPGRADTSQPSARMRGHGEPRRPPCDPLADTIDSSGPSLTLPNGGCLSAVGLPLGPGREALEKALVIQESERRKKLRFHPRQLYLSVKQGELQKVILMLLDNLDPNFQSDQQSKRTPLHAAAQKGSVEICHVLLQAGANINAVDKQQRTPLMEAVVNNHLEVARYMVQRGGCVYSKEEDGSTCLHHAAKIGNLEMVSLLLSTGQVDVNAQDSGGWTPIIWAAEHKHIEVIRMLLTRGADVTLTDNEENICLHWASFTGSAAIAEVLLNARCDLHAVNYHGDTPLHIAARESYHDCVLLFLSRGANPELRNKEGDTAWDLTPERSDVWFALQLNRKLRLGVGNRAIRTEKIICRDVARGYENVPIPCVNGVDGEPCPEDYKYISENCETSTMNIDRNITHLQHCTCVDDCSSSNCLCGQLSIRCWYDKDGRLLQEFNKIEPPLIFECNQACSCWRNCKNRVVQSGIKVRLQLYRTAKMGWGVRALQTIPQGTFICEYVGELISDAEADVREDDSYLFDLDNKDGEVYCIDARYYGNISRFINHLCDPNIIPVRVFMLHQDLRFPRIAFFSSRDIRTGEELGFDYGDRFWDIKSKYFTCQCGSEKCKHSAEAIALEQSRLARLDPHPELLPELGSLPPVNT
Method in brief: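 G9a (20 nM) was preincubated 15 min with compound, then reacted 2 h at room temperature with 500 nM biotin-H3K9 peptide and 20 µM SAM. Monomethyl-H3K9 detected by AlphaScreen using anti-H3K9me1 antibody.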
% is set by controls: 0 for no effect and ±100 for the full control effect; potency is the fitted concentration of half-maximal effect; tags give direction and shape of the fitted curve.
Note: nearly all actives have a fitted effect of over 75% in size.

| SMILES | Potency | activity, negative = inhibition |
| --- | --- | --- |
| Cc1c(C(c2ccc([N+](=O)[O-])cc2)c2c(C)n(C)n(-c3ccccc3)c2=O)c(=O)n(-c2ccccc2)n1C | inconclusive: 14.1 µM [inhibitor, partial curve, poor fit] |  |
| CCn1c([N+](=O)[O-])nc2c1c(=O)[nH]c(=O)n2C | active: 39.8 µM |  |
| O=C(Cn1cccc1)Nc1ccc(F)cc1F | inconclusive: 79.4 µM [inhibitor, partial curve, poor fit] |  |
| Cc1ccc(C(=O)Oc2cc(-c3ccc4c(c3)OCO4)cc(=O)c3c(C)oc(C)c23)cc1 | inconclusive: 31.6 µM [inhibitor, single point] |  |
| CCn1c2ccccc2c2nnc(SCC(=O)NC(CC(C)C)C(=O)OC)nc21 (configuration not stated) | inconclusive: 89.1 µM [inhibitor, single point] |  |
| Cc1ccc(C(=O)NC2(C(F)(F)F)N=C(c3ccccc3)N(Cc3ccccc3)C2=O)cc1 (configuration not stated) |  | inactive: -0.508% |
| O=C(CSc1c2c(nc3ccccc13)CCCC2)NCc1ccco1 | inconclusive: 39.8 µM [inhibitor, full curve] |  |
| Cc1c(CC(Cl)(Cl)Cl)c2c(n1O)CC(C)(C)CC2=O | inconclusive: 100 µM [inhibitor, single point] |  |
| O=C(Nc1ccc(Nc2ccccc2)cc1)C(Cl)Cl | inconclusive: 11.2 µM [inhibitor, partial curve, poor fit] |  |
| CCNc1c(NS(=O)(=O)c2ccc(OC)cc2)c(=O)oc2ccccc12 |  | inactive: 16.2% [at 102 µM] |
| CCOc1ccc(NC(=O)Cn2c(=O)n(CCCS(=O)(=O)C3CCCCC3)c(=O)c3ccccc32)cc1 |  | inactive: 8.24% |
| Oc1ccccc1C1=Nc2ncnn2C(c2ccccc2)C1 (configuration not stated) | active: 17.8 µM |  |
| CCOC(=O)C1CCN(C(c2ccc(C)cc2)c2c(O)cc(C)n(CCOC)c2=O)CC1 (configuration not stated) | inconclusive: 39.8 µM [inhibitor, single point] |  |
| CSc1ccccc1NC(=O)c1cc(-c2ccco2)on1 | inconclusive: 89.1 µM [inhibitor, single point] |  |
| Cc1cc(NC(=O)CCCC(=O)NCc2ccccc2)no1 |  | inactive: -4.73% [at 102 µM] |
| COc1ccc(OC)c(N=C2C(=O)Nc3ccccc32)c1 |  | inconclusive: -71.6% [inhibitor] |
| COc1cc(C(=O)NC(=S)Nc2ccc([N+](=O)[O-])cc2)cc(OC)c1OC | inconclusive: 22.4 µM [inhibitor, single point] |  |
| CC1=CC(=O)C=C(C)C1=NOc1ccccc1[N+](=O)[O-] | active: 25.1 µM |  |
| O=S(=O)(/N=S1/CC=CCN1S(=O)(=O)c1ccccc1)c1ccccc1 (configuration not stated) | inconclusive: 0.891 µM [inhibitor, full curve, poor fit] |  |
| CCCn1cc(S(=O)(=O)c2ccc(Cl)cc2)c(=O)c2cc(OC)ccc21 |  | inactive: 2.09% [at 102 µM] |
| CC(=O)c1cccc(NC(=O)CSc2nnc(C(C)N(C)C)n2Cc2ccccc2)c1 (configuration not stated) | inconclusive: 89.1 µM [inhibitor, single point] |  |
| N#Cc1ccc(CN2CCCC3(CCN(S(=O)(=O)c4ccccc4)CC3)C2)cc1 |  | inactive: -6.72% [at 12.7 µM] |
| Cc1ccc(C)c(-n2nnc(-c3nc(-c4ccccc4C)no3)c2C)c1 |  | inactive: 13.3% |
| O=C1NC(=Nc2ccccc2)S/C1=C\C=C\c1ccco1 | inconclusive: 17.8 µM [inhibitor, partial curve, poor fit] |  |

| SMILES | Potency | activity, negative = inhibition |
| --- | --- | --- |
| CC1=CC(C)(C)Nc2ccc(OC(=O)c3cccnc3)cc21 | active: 44.7 µM |  |
| Cc1ccccc1-c1nnn(Cc2ccc(-c3nn[nH]n3)cc2)n1 | inconclusive: 56.2 µM [inhibitor, partial curve, poor fit] |  |
| Cc1cccc(N2CCN(c3ncnc4c3nc3n4CCCCC3)CC2C)c1 (configuration not stated) | inconclusive: 25.1 µM [inhibitor, single point] |  |
| COc1ccc(CCNc2nc3cc(OC)c(OC)cc3c3nc(-c4ccccc4)nn23)cc1OC |  | inactive: -28.4% |
| Cc1ccc(-c2csc(NC(=O)c3ccc([N+](=O)[O-])o3)n2)cc1 |  | inactive: -15.4% [at 102 µM] |
| CC(=O)c1ccccn1 |  | inactive: 19.8% [at 12.7 µM] |
| Cc1cc(C(=O)Cn2cnc3cc([N+](=O)[O-])ccc3c2=O)c(C)n1CC1CCCO1 (configuration not stated) | inconclusive: 79.4 µM [inhibitor, single point] |  |
| COc1cc2c(cc1OC)C1(Nc3c-2c(C)nn3-c2ccccc2)C(=O)Nc2ccccc21 (configuration not stated) | active: 70.8 µM |  |
| COc1ccc(C)cc1NCc1ccc(OC)c(C)c1OC | active: 8.91 µM |  |
| CN(CCOc1ccccc1)CC(=O)Nc1cccc(Br)c1 | active: 11.2 µM |  |
| Cc1cc2nc(-c3ccccc3)cc(=O)n2[nH]1 | inconclusive: 79.4 µM [inhibitor, single point] |  |
| CC1(C)Nc2ccccc2N(Cc2ccc([N+](=O)[O-])cc2)C1=O | inconclusive: 70.8 µM [inhibitor, partial curve, poor fit] |  |
| CN1CCC(N(C)C(=O)COc2ccccc2Cl)CC1 | inconclusive: 2.24 µM [inhibitor, single point] |  |
| O=C(NC1CC1)C1=C[C@H](c2ccc(C(F)(F)F)cc2)C[C@H](OCc2ccc(CO)cc2)O1 |  | inconclusive: -64.2% [inhibitor] |
| COc1ccccc1N1CCN(/N=C\c2cccnc2)CC1 | active: 39.8 µM |  |
| Cn1c(C(=O)N2CCC(C(=O)NCCc3ccccc3)CC2)cc2sccc21 |  | inactive: -11.1% |
| COc1ccc(-c2cc(=Nc3ccc(C(=O)O)cc3)c3cc(C)ccc3o2)cc1 | inconclusive: 89.1 µM [inhibitor, single point] |  |
| COCCn1nnnc1CN1CCN2CCCC2C1 (configuration not stated) |  | inconclusive: -58.8% [inhibitor] |
| O=C(CCc1ccccc1)N1CCN(c2ccccn2)CC1 | inconclusive: 20 µM [inhibitor, partial curve, poor fit] |  |
| CCN(CC)C(=O)[C@@]1(c2ccccc2)C[C@@H]1CN |  | inactive: 9.11% [at 12.7 µM] |
| Cc1onc(-c2c(F)cccc2Cl)c1C(=O)Nc1cccc(S(=O)(=O)NCc2ccco2)c1 | active: 56.2 µM |  |
| Cc1ccc(/C=C/C(=O)Nc2ccc(Oc3ccccc3)cc2)o1 | active: 11.2 µM |  |
| Oc1cc(-c2ccncc2)cc2cccnc12 |  | inactive: 10.5% [at 12.7 µM] |
| CCc1ccc(NC(=O)N(CCN2CCOCC2)Cc2ccc3c(c2)CCCN3CC)cc1 | active: 31.6 µM |  |

| SMILES | Potency | activity, negative = inhibition |
| --- | --- | --- |
| COc1ccc(C(=O)Nc2ccc(N3CCOCC3)cc2)cc1S(=O)(=O)NC1CCCC1 | active: 31.6 µM |  |
| O=C(CNC(=O)c1ccc(Oc2ccccc2)cc1)OC1CCCCC1=O (configuration not stated) | inconclusive: 89.1 µM [inhibitor, single point] |  |
| CC1=NN(c2ccccc2)C(=O)/C1=C\c1c(C)[nH]n(-c2ccccc2)c1=O | inconclusive: 12.6 µM [inhibitor, single point] |  |
| COc1cccc(CN(C)C(=O)CCN=C2NS(=O)(=O)c3ccccc32)c1OC | inconclusive: 1.41 µM [inhibitor, single point] |  |
| Cc1nc2ccccn2c1-c1csc(NCc2ccco2)n1 | active: 8.91 µM |  |
| COc1cc(/C=N/NC(=O)CSc2n[nH]c(=O)[nH]c2=O)cc(OC)c1O | active: 35.5 µM |  |
| CC(C)N1C(=O)C2C(c3ccccc3O)NC(C)(C(=O)O)C2C1=O (configuration not stated) |  | inactive: 1.88% [at 102 µM] |
| COc1cc(OC)cc(-c2cc3nc(C)c(CCC(=O)Nc4ccccc4OC)c(C)n3n2)c1 | inconclusive: 8.91 µM [inhibitor, partial curve, poor fit] |  |
| COc1ccc(-c2nnc(SCC(=O)Nc3ccccc3)n2C)cc1 |  | inactive: -18.3% [at 102 µM] |
| CC1(C)Cc2c(cnn2-c2ccccc2)-c2c1c1ccccc1n2CC(O)CBr (configuration not stated) | inconclusive: 12.6 µM [inhibitor, partial curve, poor fit] |  |
| C[C@@H](C(=O)Nc1ccc2ccccc2c1)[C@H]1C[C@]1(C)[C@H](NP(=O)(c1ccccc1)c1ccccc1)c1ccccc1 | inconclusive: 89.1 µM [inhibitor, single point] |  |
| Cc1ccc(C(=O)CSc2nc3c([nH]2)c(=O)n(C)c(=O)n3C)cc1 | active: 39.8 µM |  |
| CCCCOc1ccc(CONS(=O)(=O)c2ccc(NC(C)=O)cc2)cc1Cl | inconclusive: 8.91 µM [inhibitor, partial curve, poor fit] |  |
| Nc1ncnc2nc(SCc3ccccc3)[nH]c12 |  | inactive: 7.04% [at 102 µM] |
| O=c1c(-c2cccc([N+](=O)[O-])c2)[n+]([O-])c2ccccc2n1O |  | inconclusive: -84.9% [inhibitor] |
| NC(=O)[C@@H]1CC2(CC(c3cccc(NC(=O)COc4ccc(Cl)cc4)c3)=NO2)CN1C(=O)COc1ccc(Cl)cc1 (some centres not stated) |  | inactive: 4.88% [at 12.7 µM] |
| Nc1[nH]c(N=NC(=O)c2ccc(Cl)cc2)c2ccccc12 | inconclusive: 7.08 µM [inhibitor, single point] |  |
| O=Cc1ccc2cccnc2n1 | active: 39.8 µM |  |
| O=C(CN(c1ccc(Cl)c(C(F)(F)F)c1)S(=O)(=O)c1ccccc1)Nc1cccnc1 | inconclusive: 35.5 µM [inhibitor, partial curve, poor fit] |  |
| CCc1nc(C)c(C#N)c2cc(OC)c(OC)cc12 | inconclusive: 8.91 µM [inhibitor, partial curve, poor fit] |  |
| CC(C)(C)C(=O)Nc1nc(C2CCCN2S(=O)(=O)c2ccc(Cl)cc2)cs1 (configuration not stated) | inconclusive: 79.4 µM [inhibitor, single point] |  |
| O=C(COC(=O)c1cc([N+](=O)[O-])ccc1NCCO)Nc1ccc2c(c1)OCO2 | active: 50.1 µM |  |
| Cc1ccc(C(C)C)c(OCCn2c(=O)oc3ccccc32)c1 |  | inactive: 41% [at 102 µM] |
| CCc1ccc2[nH]c(=O)c(CN(Cc3ccc(OC)cc3)Cc3nnnn3CCOC)cc2c1 | inconclusive: 35.5 µM [inhibitor, full curve, poor fit] |  |
